{"source": "paper PMC4336329", "about": "(PLoS ONE, 2015)", "note": "Screen size: about 310,000 compounds; about 14,000 (4.5%) showed an effect of 50% or more. The effect is printed as a negative number. The list shows a part of the results.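 Also: peak tail current of the secondary pulse compared with the same well before compound.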", "data": [{"target": "human ether-à-go-go-related gene (hERG) potassium channel (human, UniProt Q12809)", "sequence (Q12809 whole entry, looked up)": "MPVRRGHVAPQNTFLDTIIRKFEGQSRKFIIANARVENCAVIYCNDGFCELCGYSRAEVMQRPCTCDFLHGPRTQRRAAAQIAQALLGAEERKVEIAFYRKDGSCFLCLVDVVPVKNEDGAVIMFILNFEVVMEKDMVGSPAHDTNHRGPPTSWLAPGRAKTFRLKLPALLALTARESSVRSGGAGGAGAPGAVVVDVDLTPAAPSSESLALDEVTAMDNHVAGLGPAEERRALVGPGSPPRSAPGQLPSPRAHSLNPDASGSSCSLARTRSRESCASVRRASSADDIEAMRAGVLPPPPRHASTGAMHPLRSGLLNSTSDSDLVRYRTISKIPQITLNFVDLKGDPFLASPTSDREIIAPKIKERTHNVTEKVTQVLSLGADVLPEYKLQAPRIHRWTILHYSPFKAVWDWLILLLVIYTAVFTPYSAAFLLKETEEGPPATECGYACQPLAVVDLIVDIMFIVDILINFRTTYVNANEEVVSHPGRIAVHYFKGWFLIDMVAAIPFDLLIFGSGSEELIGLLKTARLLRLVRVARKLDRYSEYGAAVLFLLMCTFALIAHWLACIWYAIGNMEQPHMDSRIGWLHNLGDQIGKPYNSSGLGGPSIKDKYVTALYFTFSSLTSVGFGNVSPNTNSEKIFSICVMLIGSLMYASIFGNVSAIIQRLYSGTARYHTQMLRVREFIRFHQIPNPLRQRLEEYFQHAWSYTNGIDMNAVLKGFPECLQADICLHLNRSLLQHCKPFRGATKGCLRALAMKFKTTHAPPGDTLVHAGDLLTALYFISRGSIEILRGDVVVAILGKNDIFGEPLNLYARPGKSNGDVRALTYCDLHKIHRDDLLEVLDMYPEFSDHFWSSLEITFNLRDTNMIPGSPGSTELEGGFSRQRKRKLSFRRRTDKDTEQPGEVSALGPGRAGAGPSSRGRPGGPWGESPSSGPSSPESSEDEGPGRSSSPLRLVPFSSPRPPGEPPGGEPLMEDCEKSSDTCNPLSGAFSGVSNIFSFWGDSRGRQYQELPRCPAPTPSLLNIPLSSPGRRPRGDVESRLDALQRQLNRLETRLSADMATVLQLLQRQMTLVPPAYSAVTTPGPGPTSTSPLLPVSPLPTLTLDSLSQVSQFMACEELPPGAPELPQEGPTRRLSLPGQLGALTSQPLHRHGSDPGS", "test": "primary screen, population patch clamp on CHO cells stably expressing hERG", "units": {"hERG current change (%, negative = inhibition) at 10uM": "%"}, "values": [{"smiles": "CCOC(=O)C1=C(C)NC(=O)NC1c1ccc(Cl)cc1Cl", "note": "(stereo not shown)", "hERG current change (%, negative = inhibition) at 10uM": -14.7}, {"smiles": "CCCNC(=O)N1[C@H]2CC[C@@H]1C(C(=O)OC)=C(c1ccc(F)cc1OCc1ccccc1)C2", "hERG current change (%, negative = inhibition) at 10uM": -23.3}, {"smiles": "COc1ccc(N2CCN(C(=O)CCC(=O)N3CC(C)Oc4ccccc43)CC2)cc1", "note": "(stereo not shown)", "hERG current change (%, negative = inhibition) at 10uM": -46.2}, {"smiles": "COc1cccc(/C=N/n2c(C)nc3ccccc32)c1OC", "hERG current change (%, negative = inhibition) at 10uM": 6.97}, {"smiles": "CCOC(=O)Nc1ccc(NS(=O)(=O)c2ccc(C)cc2)cc1", "hERG current change (%, negative = inhibition) at 10uM": -3.87}, {"smiles": "CCCN(CCC)C(=O)C(CCC(=O)[O-])NC(=O)c1ccccc1.[Na+]", "note": "(stereo not shown)", "hERG current change (%, negative = inhibition) at 10uM": 4.04}, {"smiles": "NS(=O)(=O)c1cccc(NC(=O)Cc2ccc(Cl)c(Cl)c2)c1", "hERG current change (%, negative = inhibition) at 10uM": 6.09}, {"smiles": "Cc1ccc(Cn2c(CN(C)Cc3ccccc3)nc3c2c(=O)n(C)c(=O)n3C)cc1", "hERG current change (%, negative = inhibition) at 10uM": -21.5}, {"smiles": "CN(Cc1ccccc1)C(=O)c1ccc([N+](=O)[O-])o1", "hERG current change (%, negative = inhibition) at 10uM": 1.49}, {"smiles": "O=C(CN1CCN(c2ccc(F)cc2)CC1)NC(=O)NCc1ccco1", "hERG current change (%, negative = inhibition) at 10uM": 17}, {"smiles": "Cc1ccc(/C=N/n2c(-c3cccs3)n[nH]c2=S)cc1", "hERG current change (%, negative = inhibition) at 10uM": 10.3}, {"smiles": "Br.CC(=O)Nc1ccc(-c2csc(N/N=C\\c3ccncc3)n2)cc1", "hERG current change (%, negative = inhibition) at 10uM": 4.43}, {"smiles": "COc1cccc(N2CCN(CC(=O)c3c(C)[nH]c4ccccc34)CC2)c1", "hERG current change (%, negative = inhibition) at 10uM": -27.9}, {"smiles": "C=CCOC(=O)C1=C(C)NC(=O)NC1c1cc(Cl)cc(Cl)c1OC", "note": "(stereo not shown)", "hERG current change (%, negative = inhibition) at 10uM": 2.16}, {"smiles": "CN(C)c1ccc(S(=O)(=O)NCC(=O)OCC(=O)c2ccc[nH]2)cc1[N+](=O)[O-]", "hERG current change (%, negative = inhibition) at 10uM": -11.7}, {"smiles": "CC(=O)Nc1ccccc1NC(=O)CN(C)S(=O)(=O)c1ccc(C)cc1", "hERG current change (%, negative = inhibition) at 10uM": -16.5}, {"smiles": "CC(C)(C)SCCNC(=O)c1ccc(Cl)c(S(=O)(=O)N2CCOCC2)c1", "hERG current change (%, negative = inhibition) at 10uM": -6.74}, {"smiles": "O=C(NCc1ccccc1Cl)c1cnccc1C(F)(F)F", "hERG current change (%, negative = inhibition) at 10uM": 1.46}, {"smiles": "O=[N+]([O-])c1ccc(OCCCCN2CCCCC2)cc1", "hERG current change (%, negative = inhibition) at 10uM": -69.4}, {"smiles": "Cc1ccc(NC2(C(F)(F)F)N=C(c3ccccc3)NC2=O)nc1", "note": "(stereo not shown)", "hERG current change (%, negative = inhibition) at 10uM": 18.4}, {"smiles": "Cc1cccn2cc(COc3cccc([N+](=O)[O-])c3)nc12", "hERG current change (%, negative = inhibition) at 10uM": 9.46}, {"smiles": "O=C(CCc1ccncc1)N1CCCC(Nc2ccc(F)c(F)c2)C1", "note": "(stereo not shown)", "hERG current change (%, negative = inhibition) at 10uM": -56}, {"smiles": "O=C(COc1cccc(NC(=O)c2ccco2)c1)c1ccc(F)cc1", "hERG current change (%, negative = inhibition) at 10uM": -34.4}, {"smiles": "CCN(CC)C(=O)Cn1cc(C(=O)C(=O)N2CCCc3ccccc32)c2ccccc21", "hERG current change (%, negative = inhibition) at 10uM": -2.47}, {"smiles": "COc1ccc(OC)c(S(=O)(=O)N(C)CC(=O)N2CCCCC2)c1", "hERG current change (%, negative = inhibition) at 10uM": -5.42}, {"smiles": "Cc1ccc(S(=O)(=O)CC(C)(O)C(=O)Nc2cccc(C(F)(F)F)c2)cc1", "note": "(stereo not shown)", "hERG current change (%, negative = inhibition) at 10uM": 1.06}, {"smiles": "Cc1ccc(OCC(=O)NNC(=O)C2CCCO2)c(C)c1", "note": "(stereo not shown)", "hERG current change (%, negative = inhibition) at 10uM": 2.64}, {"smiles": "COc1cccc(Cn2cc(N)cn2)c1", "hERG current change (%, negative = inhibition) at 10uM": 21.4}, {"smiles": "Cn1c(=O)[nH]c2c(Cl)nccc21", "hERG current change (%, negative = inhibition) at 10uM": 33.9}, {"smiles": "O=C1CCC([N+](=O)[O-])C(c2cccc(Br)c2)N1", "note": "(stereo not shown)", "hERG current change (%, negative = inhibition) at 10uM": -6.63}, {"smiles": "O=C(c1cc(F)ccc1F)C1CCCN(C(=O)c2cccs2)C1", "note": "(stereo not shown)", "hERG current change (%, negative = inhibition) at 10uM": 22.5}, {"smiles": "O=C(O)c1cc2n(n1)C(C(F)(F)F)CC(c1ccccc1)N2", "note": "(stereo not shown)", "hERG current change (%, negative = inhibition) at 10uM": 16}, {"smiles": "CCCC(=O)Nc1ccc2nc(SCC(=O)N3CCCC3)sc2c1", "hERG current change (%, negative = inhibition) at 10uM": 2.52}, {"smiles": "Cc1cccc(CSc2ccc(S(=O)(=O)N3CCCC3)cn2)c1", "hERG current change (%, negative = inhibition) at 10uM": 5.24}, {"smiles": "CC(NC(=O)C1CCC(CNC(=O)[C@@H]2Cc3ccccc3CN2)CC1)c1ccccc1", "note": "(stereo partly shown)", "hERG current change (%, negative = inhibition) at 10uM": -4.23}, {"smiles": "O=P1(Nn2cnnc2)C=C(c2ccccc2)OC(c2ccccc2)=C1", "hERG current change (%, negative = inhibition) at 10uM": -20.8}, {"smiles": "O=C(Nc1cnccn1)c1ccncc1", "hERG current change (%, negative = inhibition) at 10uM": -5.96}, {"smiles": "CCOc1ccc(Nc2n[nH]c(=S)s2)cc1", "hERG current change (%, negative = inhibition) at 10uM": 14.8}, {"smiles": "C=C(C)COc1ccc(-c2nc(N)ncc2-c2ccc(OC)c(OC)c2)c(O)c1", "hERG current change (%, negative = inhibition) at 10uM": 14.5}, {"smiles": "CCn1c(Cc2ccccc2)nnc1SCC(=O)Nc1ccc2c(c1)OCO2", "hERG current change (%, negative = inhibition) at 10uM": 2.66}, {"smiles": "CCCCNC(=S)NNC(=O)c1c(Cl)c(C)nn1C", "hERG current change (%, negative = inhibition) at 10uM": 25.6}, {"smiles": "COc1ccc(-c2cc(C(=O)OCc3ccccn3)c3ccccc3n2)cc1", "hERG current change (%, negative = inhibition) at 10uM": 24.3}, {"smiles": "COCC(=O)NCCc1nc(-c2ccccc2)cs1", "hERG current change (%, negative = inhibition) at 10uM": 4.61}, {"smiles": "CC(C)(CS(=O)(=O)[O-])NC(=O)CC[N+](C)(C)CCO", "hERG current change (%, negative = inhibition) at 10uM": 10.5}, {"smiles": "CCNc1sc(C(=O)OCC)c(N)c1C#N", "hERG current change (%, negative = inhibition) at 10uM": 6.96}, {"smiles": "COc1ccc(NC(=O)CS(=O)(=O)c2cn(CC(=O)N3CCOCC3)c3ccccc23)cc1OC", "hERG current change (%, negative = inhibition) at 10uM": 15.5}, {"smiles": "Cc1[nH]c2ccccc2c1Cc1n[nH]c(=S)o1", "hERG current change (%, negative = inhibition) at 10uM": 16.7}, {"smiles": "COc1cccc(NC(=O)N2CCC(NC(=O)C(Cc3ccccc3F)NC(C)=O)CC2)c1", "note": "(stereo not shown)", "hERG current change (%, negative = inhibition) at 10uM": 7.04}, {"smiles": "c1coc(-c2nn3c(Cn4nnc5ccccc54)nnc3s2)c1", "hERG current change (%, negative = inhibition) at 10uM": -10.1}, {"smiles": "COc1ccc2oc(=O)c(C(=O)NC3CCCCCC3)cc2c1", "hERG current change (%, negative = inhibition) at 10uM": 14.1}, {"smiles": "COCCSc1ccccc1C(=O)Nc1ccncc1", "hERG current change (%, negative = inhibition) at 10uM": 16.4}, {"smiles": "CCOC(=O)c1sc(NC(=O)CSc2nc3ccccc3s2)c(C(=O)OCC)c1C", "hERG current change (%, negative = inhibition) at 10uM": 14.9}, {"smiles": "CCN(CC(=O)NCc1ccc(Cl)cc1)C(=O)CSc1cccc(C(F)(F)F)c1", "hERG current change (%, negative = inhibition) at 10uM": -23.3}, {"smiles": "COc1cccc(CCc2nnc(CCC(=O)NCCC3CCCCO3)o2)c1", "note": "(stereo not shown)", "hERG current change (%, negative = inhibition) at 10uM": 9.16}, {"smiles": "Cc1ccc(C(=O)O/N=C(\\N)c2ccc(Br)cc2)cc1", "hERG current change (%, negative = inhibition) at 10uM": 12.3}, {"smiles": "COc1cc2cc(C(=O)N3CCN(Cc4ccc5c(c4)OCO5)CC3)c(=O)oc2cc1OC", "hERG current change (%, negative = inhibition) at 10uM": -0.572}, {"smiles": "O=C(Cn1c(C(=O)NCc2ccco2)cc2sccc21)c1ccccc1", "hERG current change (%, negative = inhibition) at 10uM": 16.5}, {"smiles": "CCOc1ccc(C(=O)COC(=O)C2CCN(c3ccc(C(F)(F)F)cn3)CC2)cc1", "hERG current change (%, negative = inhibition) at 10uM": -43.3}]}]}
